Data: PubChem BioAssay AID488969 (Vanderbilt High Throughput Screening Facility, 2010)
Over roughly 110,000 compounds, “z-score” has its median near -0.1; the highest 2% begin near 2. The list shows a part of the results. Calls of active or inactive are those of the source.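 Rule for the calls: active = z-score in the third read window above 3 or below -3; inactive = the rest.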

Each molecule was assayed against Metabotropic glutamate receptor 8 (Rattus norvegicus) (UniProt P70579) (assay: rat mGluR8 modulators via GIRK flux, primary screen, cell-based, thallium flux, HTS (AID 488969)). Conditions: HEK293 rat mGluR8, GIRK (G protein-gated inwardly rectifying potassium channel) thallium flux, FluoZin2; at 10 µM; stronger effect = higher value; submaximal glutamate (EC20) added with thallium.
Chain of UniProt P70579 (P70579 whole entry, looked up): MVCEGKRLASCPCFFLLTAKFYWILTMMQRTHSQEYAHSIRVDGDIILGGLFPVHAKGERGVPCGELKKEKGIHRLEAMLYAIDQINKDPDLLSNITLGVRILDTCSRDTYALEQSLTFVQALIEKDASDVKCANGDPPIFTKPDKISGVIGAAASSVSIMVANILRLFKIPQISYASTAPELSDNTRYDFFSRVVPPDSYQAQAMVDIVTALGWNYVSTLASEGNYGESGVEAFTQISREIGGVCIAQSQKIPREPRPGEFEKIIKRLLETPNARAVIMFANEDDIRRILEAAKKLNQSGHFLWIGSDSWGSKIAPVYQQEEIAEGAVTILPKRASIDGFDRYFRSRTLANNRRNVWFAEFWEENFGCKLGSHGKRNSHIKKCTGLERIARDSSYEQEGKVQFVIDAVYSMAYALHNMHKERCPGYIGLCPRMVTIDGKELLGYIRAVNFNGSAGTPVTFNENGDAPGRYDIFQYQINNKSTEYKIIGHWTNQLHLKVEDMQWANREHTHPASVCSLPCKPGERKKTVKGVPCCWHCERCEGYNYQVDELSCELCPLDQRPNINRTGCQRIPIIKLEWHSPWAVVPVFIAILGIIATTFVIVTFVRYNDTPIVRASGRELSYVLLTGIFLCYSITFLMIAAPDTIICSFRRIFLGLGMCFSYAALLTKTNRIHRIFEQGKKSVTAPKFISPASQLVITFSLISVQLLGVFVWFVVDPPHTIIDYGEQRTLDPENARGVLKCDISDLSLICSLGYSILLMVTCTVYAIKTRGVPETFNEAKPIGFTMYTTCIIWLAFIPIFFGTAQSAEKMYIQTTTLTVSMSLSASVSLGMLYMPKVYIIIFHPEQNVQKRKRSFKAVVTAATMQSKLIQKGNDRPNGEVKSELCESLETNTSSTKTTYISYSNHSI

Row | Compound | z-score
1 | Fc1ccc(C2NC(=S)NC3=C2N2CCC3CC2)cc1 (configuration not stated) | -0.0689
2 | CCN(CC)S(=O)(=O)c1cccc(C(=O)N[C@H](C(=O)Nc2nc3ccccc3s2)C(C)C)c1 | 0.326
3 | CCN(CC)S(=O)(=O)c1ccc(C(=O)C(C#N)c2ccccn2)cc1 (configuration not stated) | 0.707
4 | O=C(CCCN1C(=O)/C(=C/c2cccs2)SC1=S)NNC(=O)c1ccccc1O | -0.15
5 | CCCC(=O)Nc1cccc(NC(=O)c2ccc([N+](=O)[O-])cc2Cl)c1 | -0.236
6 | Cn1c(=O)c2c(nc(CN3CCN(c4ccccc4)CC3)n2CCc2ccccc2)n(C)c1=O | -0.349
7 | COc1ccc2c(Cl)c(C(=O)NCCCn3ccnc3)sc2c1Cl | -0.209
8 | Cc1cccn2cc(CNC(=O)C3CCCCC3)nc12 | -0.0588
9 | Cc1c(NC(=O)C(CC(=O)O)NCc2ccco2)c(=O)n(-c2ccccc2)n1C (configuration not stated) | -0.257
10 | O=C(NCC(c1cccnc1)N1CCOCC1)Nc1ccccc1 (configuration not stated) | 0.0892
11 | COc1ccc(S(=O)(=O)NN=C2CCCCC2)cc1 | 1.17
12 | CCCN1C(=O)c2ccccc2NC1c1ccc(OC)c(CSc2ccccn2)c1 (configuration not stated) | -0.778
13 | COC(=O)c1sccc1NC(=O)c1c(C)c(-c2cccc(Cl)c2)nc2ccccc12 | -0.445
14 | O=C1Nc2c(c(=O)[nH]c(=O)n2-c2ccccc2)C1(Nc1ncccn1)C(F)(F)F (configuration not stated) | 0.239
15 | Cc1cccc(NC(=O)c2cn(-c3ccccc3)nc2-c2ccccc2)c1 | -0.163
16 | COc1ccc(OC)c(/C=N/NC(=O)CC2C(=O)NN=C2C)c1 (configuration not stated) | -0.12
17 | O=S(=O)(NC1c2cccc3cccc(c23)C1N1CCNCC1)c1ccccc1 (configuration not stated) | -0.568
18 | COc1cccc(-c2nc(CS(=O)(=O)CC(=O)NCc3ccc(Cl)cc3)c(C)o2)c1 | -0.253
19 | COC(=O)/C(=N/Nc1ccc(C)cc1)N1CCCc2ccccc21 | -0.278
20 | CCn1nc(C(=O)OCC(=O)N2CCc3ccccc32)c2ccccc2c1=O | active: -4.02
21 | O=c1ccn(-c2cccc(C(F)(F)F)c2)nc1-c1ccn(-c2cccc(Cl)c2)n1 | -0.0868
22 | CSc1nc2nc(C(F)(F)F)cc(-c3ccccc3)n2n1 | -0.221
23 | O=C1CN(C(=O)CSc2nnnn2-c2ccc(Cl)cc2)c2ccccc2N1 | -0.16

Row | Compound | z-score
24 | CC(C(=O)Nc1cccnc1)N1C(=O)C2C3C=CC(C3)C2C1=O (configuration not stated) | 0.119
25 | COCCCNC(=O)c1ccc2c(c1)CCN2S(C)(=O)=O | 0.419
26 | COc1ccccc1-n1c(SCC(=O)NC2CCCCC2)nc2c(c1=O)SCC2 | -1.47
27 | CN(CC(=O)Nc1ccc2c(c1)OCCO2)S(=O)(=O)c1cccc2cccnc12 | -0.155
28 | CC(C)c1cc(Br)ccc1OCCCN1C(=O)NC(C)(C)C1=O | -0.263
29 | COc1ccc(OC)c(-n2c(=S)[nH]c3cc(C(=O)N4CCC(C(N)=O)CC4)ccc3c2=O)c1 | 0.171
30 | Clc1cccc(Cl)c1CO/N=C/c1c(-c2ccccc2)nc2n1CCS2 | -0.177
31 | O=S1(=O)N=C(N(CCO)/N=C/C=C/c2ccccc2)c2ccccc21 | -0.515
32 | CCOc1ccc(S(=O)(=O)N2CCN(c3ccccc3)CC2)c2cccnc12 | 0.793
33 | CCOC(=O)C1=C(C)Nc2nc3ccccc3n2C1c1ccccc1 (configuration not stated) | 0.0404
34 | O=C(Cc1ccccc1)Nc1ccc(C(=O)NCC2COc3ccccc3O2)cc1 (configuration not stated) | -0.477
35 | Cc1ccc(S(=O)(=O)c2c(C)cc(C)nc2Cl)cc1 | -0.0793
36 | CC(C)C(CO)NC(=O)CC(=O)NC(CO)C(C)C (configuration not stated) | 0.0738
37 | COC(=O)c1cc(NC2c3ccccc3C(=O)N2c2cccnc2)cc(C(=O)OC)c1 (configuration not stated) | 0.475
38 | Cc1ccc(-c2csc3nc[nH]c(=S)c23)cc1C | active: 15.9
39 | Cc1ccc(/C=C2/NC(=O)N(Cc3ccccc3F)C2=O)o1 | -0.045
40 | O=C(CCc1ccc(S(=O)(=O)NC2CCCCC2)cc1)N(Cc1ccccc1)Cc1ccccc1 | -0.22
41 | O=C(O)CC(C(=O)Nc1ccc(Cl)c(Cl)c1)C1CCCO1 (configuration not stated) | -0.249
42 | C=CCn1c(COc2ccccc2F)nnc1SCC(=O)c1c[nH]c2ccccc12 | -0.412
43 | CCn1c(CC(=O)Nc2cccc(Cl)c2Cl)nnc1SCCOc1ccc(OC)cc1 | -1.5
44 | Cc1ccc(/C=N/n2c(-c3ccncc3)n[nH]c2=S)cc1 | 0.0356
45 | O=C1C2C3C=CC(C4CC34)C2C(=O)N1/N=C/c1ccc(-c2ccc(F)cc2[N+](=O)[O-])o1 (configuration not stated) | -0.473
46 | Cc1ccc(-c2nc(-c3ccccc3)no2)cc1 | 1.07

Row | Compound | z-score
47 | CCOc1ccccc1CNc1ccc(N2CCOCC2)c(C(=O)O)c1 | -0.456
48 | CCOC(=O)CNC(=O)CSc1nc(N(C)C)nc(N2CCOCC2)n1 | -0.116
49 | CC(/C=C/c1ccco1)=N\NC(=O)c1cc(C)[nH]n1 | -0.205
50 | O=C(NC(=S)Nc1ccc2c(c1)OCCO2)c1ccccc1 | 2.12
51 | CC1(C)Cc2c(C#N)c(OCC(=O)c3ccc(Cl)cc3)nc(-c3ccoc3)c2CO1 | -0.176
52 | CCC(CC)C(=O)Nc1cc(NC(=O)C(CC)CC)cc(C(=O)O)c1 | -0.469
53 | COc1ccc(-c2nnc(N(C)C(=O)C3CCCO3)s2)cc1 (configuration not stated) | -0.795
54 | Cc1cc(NC(=O)CSc2nnc(NC(=O)C3CC(=O)N(c4ccccc4)C3)s2)no1 (configuration not stated) | -0.322
55 | CC1CCCCC1NC(=S)Nc1ccc(SC(F)F)cc1 (configuration not stated) | active: 5.08
56 | CN1C(=O)N(C)C2C1N(CN1CCCCC1)C(=O)N2CN1CCCCC1 (configuration not stated) | -0.0397
57 | CCOC(=O)N1CCN(Cc2nc(-c3ccccc3)no2)CC1 | -0.324
58 | CCOC(=O)CCCNC(=O)COC(=O)c1ccc(O)cc1 | -0.506
59 | COC(=O)c1cc(=O)n(CCc2ccccc2)c(=Nc2ccc(F)cc2)s1 | 0.432
60 | O=C(O/N=C1\CCCc2ccccc21)c1cccc(Cl)c1 | 0.216
61 | C=CC12C=CC=CN1C(C(=O)OC)=C(C(=O)OC)C(C(=O)OC)=C2C(=O)OC (configuration not stated) | -0.272
62 | O=S(=O)(/C=C/c1ccccc1)Nc1ccc2c(c1)OCO2 | -0.74
63 | CCOC(=O)Cn1nc(C)n(-c2ccccc2)c1=O | 0.0364
64 | O=C(NNS(=O)(=O)c1ccc(Cl)cc1)c1cnn(-c2ccccc2)c1-n1cccc1 | 0.0378
65 | CS(=O)(=O)NC1c2cccc3cccc(c23)C1Sc1nncn1/N=C/c1ccco1 (configuration not stated) | -0.475
66 | Cc1cc2cc(CN(Cc3cccs3)C(c3nnnn3C(C)(C)C)C(C)C)c3nnnn3c2cc1C (configuration not stated) | -0.0191
67 | CCc1ccc(N2C(=O)c3sc4nnc(-c5ccccc5)c(=O)n4c3C2=O)cc1 | -0.743
